In one test the target is T1, mouse 4-1BB (mouse, UniProt P20334 24-256).
T1 construct: whole, on cells; also called CHO-K1/m4-1BB
T1 sequence (looked up): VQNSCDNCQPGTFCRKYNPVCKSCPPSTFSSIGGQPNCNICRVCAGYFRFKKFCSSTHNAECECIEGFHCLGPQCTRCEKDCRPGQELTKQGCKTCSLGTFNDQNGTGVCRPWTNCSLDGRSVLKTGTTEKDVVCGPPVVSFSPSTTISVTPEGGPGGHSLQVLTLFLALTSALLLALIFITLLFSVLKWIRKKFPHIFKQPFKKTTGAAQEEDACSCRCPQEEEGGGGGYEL
The experiment in a line: FACS, CHO-K1/m4-1BB cells [C]. Background: A flow cytometer gives signals particle by particle.

A further test concerns the target T2, cynomolgus monkey 4-1BB (cynomolgus monkey).
T2 construct: whole, on cells; also called CHO-K1-cyno 4-1BB; CHO-K1/cyno4-1BB
The experiment in a line: FACS, CHO-K1/cyno-4-1BB cells [B].

A further test concerns the target T3, Cynomolgus monkey CD 16 (cynomolgus monkey, UniProt Q8SPW2 17-208).
T3 construct: bought protein
The experiment in a line: BLI, antibody captured on FAB2G sensor, receptor as analyte. In general terms: In BLI a coated tip is dipped into the sample, and binding shifts an interference pattern.

In the next test the target is T4, HVEM (UniProt Q92956 39-202).
T4 construct: bought protein
T4 sequence (looked up): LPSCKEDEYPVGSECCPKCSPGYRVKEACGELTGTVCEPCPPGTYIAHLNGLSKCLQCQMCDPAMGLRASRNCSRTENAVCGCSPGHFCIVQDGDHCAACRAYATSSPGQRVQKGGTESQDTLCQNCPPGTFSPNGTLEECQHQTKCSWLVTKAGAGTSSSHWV
The experiment in a line: ELISA, protein coated at 1 µg/mL.

Another test addresses T5, CD27 (UniProt P26842 21-192, limits assumed).
T5 construct: bought protein
T5 sequence (looked up): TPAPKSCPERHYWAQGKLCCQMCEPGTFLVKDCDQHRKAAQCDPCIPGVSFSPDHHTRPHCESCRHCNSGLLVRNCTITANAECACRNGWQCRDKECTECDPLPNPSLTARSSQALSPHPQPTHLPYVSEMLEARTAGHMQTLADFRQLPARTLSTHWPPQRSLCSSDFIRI
The experiment in a line: ELISA, protein coated at 1 µg/mL. In general terms: In an ELISA, binding on a coated surface is turned into a signal by an enzyme label.

For the next test, the target named is T6, CD30 (UniProt P28908 19-379, limits assumed).
T6 construct: bought protein
T6 sequence (looked up): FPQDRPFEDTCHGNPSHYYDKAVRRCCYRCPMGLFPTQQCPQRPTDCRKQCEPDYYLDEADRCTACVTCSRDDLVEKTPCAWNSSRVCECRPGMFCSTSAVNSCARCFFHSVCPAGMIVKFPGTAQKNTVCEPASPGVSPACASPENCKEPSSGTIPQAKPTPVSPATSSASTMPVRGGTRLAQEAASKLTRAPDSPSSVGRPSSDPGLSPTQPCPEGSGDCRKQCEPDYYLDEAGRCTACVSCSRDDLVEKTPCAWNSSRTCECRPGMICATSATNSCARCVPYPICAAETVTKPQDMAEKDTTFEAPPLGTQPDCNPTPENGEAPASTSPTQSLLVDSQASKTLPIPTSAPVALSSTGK
The experiment in a line: ELISA, protein coated at 1 µg/mL.

For another test, the target named is T7, CD40 (UniProt P25942 partial chain).
T7 construct: bought protein
The experiment in a line: ELISA, protein coated at 1 µg/mL.

The target in a further test is T8, GITR (UniProt Q9Y5U5 26-161).
T8 construct: bought protein
T8 sequence (looked up): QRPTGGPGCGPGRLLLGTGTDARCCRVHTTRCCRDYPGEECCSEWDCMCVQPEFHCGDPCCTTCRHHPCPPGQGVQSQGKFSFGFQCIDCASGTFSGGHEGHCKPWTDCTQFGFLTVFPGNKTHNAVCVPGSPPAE
The experiment in a line: ELISA, protein coated at 1 µg/mL.

The target in a further test is T9, OX40 (UniProt P43489 29-216).
T9 construct: bought protein
T9 sequence (looked up): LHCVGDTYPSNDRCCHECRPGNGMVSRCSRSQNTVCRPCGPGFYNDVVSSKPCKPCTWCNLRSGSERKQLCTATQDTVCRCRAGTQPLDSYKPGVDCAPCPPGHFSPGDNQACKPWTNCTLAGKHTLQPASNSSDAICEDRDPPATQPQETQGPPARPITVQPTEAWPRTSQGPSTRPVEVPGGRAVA
The experiment in a line: ELISA, protein coated at 1 µg/mL.

One may read the EC50 as the midpoint of the concentration-response curve. Broadly, the Kd is a measure of binding affinity in units of concentration.

Chain of Cynomolgus monkey CD 16 (Q8SPW2 17-208 limits assumed): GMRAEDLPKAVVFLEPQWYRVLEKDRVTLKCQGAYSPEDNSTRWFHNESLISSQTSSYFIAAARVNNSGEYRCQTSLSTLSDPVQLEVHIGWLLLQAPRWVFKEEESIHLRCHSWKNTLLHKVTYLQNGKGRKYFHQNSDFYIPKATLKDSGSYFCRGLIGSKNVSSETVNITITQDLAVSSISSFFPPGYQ
Chain of CD40 (P25942 21-193 limits assumed): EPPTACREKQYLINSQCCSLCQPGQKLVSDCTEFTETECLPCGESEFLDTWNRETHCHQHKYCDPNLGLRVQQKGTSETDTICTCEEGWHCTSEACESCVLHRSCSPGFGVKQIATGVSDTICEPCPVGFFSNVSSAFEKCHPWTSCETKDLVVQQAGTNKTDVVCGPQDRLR

B1: PR004282 (bispecific antibody, human IgG1, kappa, L234A L235A)
light: EIVMTQSPATLSVSPGERATLSCRASQSISSNLGWYQQKPGQAPRLLIYGASTRATGIPARFSGSGSGTEFTLTISSLQSEDFAVYYCQQYQSWPPLTFGGGTKVEIKRTVAAPSVFIFPPSDEQLKSGTASVVCLLNNFYPREAKVQWKVDNALQSGNSQESVTEQDSKDSTYSLSSTLTLSKADYEKHKVYACEVTHQGLSSPVTKSFNRGEC
heavy: QVQLVESGGGVVQPGRSLRLSCAASGFTFRSFGMHWVRQAPGKGLEWVAVISYDASNEYYADSVKGRFIISRDNSKDTLYLQMNSLRAGDTAVYYCAKGGGLRWYFAYWGQGTLVTVSSASTKGPSVFPLAPSSKSTSGGTAALGCLVKDYFPEPVTVSWNSGALTSGVHTFPAVLQSSGLYSLSSVVTVPSSSLGTQTYICNVNHKPSNTKVDKKV[letters of human IgG1 Fc with changes not shown]GGSGGSEVQLLESGGGLVQPGGSLRLSCAASGFTFSNYAMSWFRQPPETGLKWVSSIDASGGDTYYADSVKGRFTISRDNSKNTLYLQMNSLRAEDTAVYYCAKEGSHGTDDSHYDVDVWGQGTTVTVSS
notes: IgG-VH tetravalent symmetric; PR002408 IgG x PR004469 VH; linker GS_6; IgG1 (L234A, L235A); also called PR0004282
For B1, the binding result in the test with mouse 4-1BB was “no binding (tested: 100 nM)”; with HVEM, “no binding (tested: 100 nM, 10 nM and 1 nM)”; with CD27, “no binding (tested: 100 nM, 10 nM and 1 nM)”; with CD30, “no binding (tested: 100 nM, 10 nM and 1 nM)”; with CD40, “no binding (tested: 100 nM, 10 nM and 1 nM)”; with GITR it was “no binding (tested: 100 nM, 10 nM and 1 nM)”. Besides, in the test with OX40, the binding result was “no binding (tested: 100 nM, 10 nM and 1 nM)”. This molecule registered a 50% effective concentration (EC50) with cynomolgus monkey 4-1BB of 2.99 nM. This molecule gave a Kd with Cynomolgus monkey CD 16 of 747 nM.

Source of the values: patent US20230235090A1 (HARBOUR BIOMED US, published 2023).
